Holding throughout (assay): Primary Screen for Target Class Profiling of Small Molecule Inhibitors of Methyltransferases
Assay [1] deals with Glycine N-methyltransferase (Homo sapiens) (UniProt Q14749). The settings on record: purified enzyme, MTase-Glo SAH luminescence; measured here: GNMT inhibition; at 40 µM; stronger effect = lower value. In short, it runs like this:
(§1)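 Each enzyme was assayed with SAM and its substrate. SAH formation detected by MTase-Glo luminescence; single-point 40 uM screen[…].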

Assay [2] concerns the target Guanidinoacetate N-methyltransferase (Homo sapiens) (UniProt Q14353). The settings on record: purified enzyme, MTase-Glo SAH luminescence; measured here: GAMT inhibition; at 40 µM; stronger effect = lower value. In short, it runs like this:
as §1

The target of assay [3] is Histamine N-methyltransferase (Homo sapiens) (UniProt P50135). The settings on record: purified enzyme, MTase-Glo SAH luminescence; measured here: HNMT inhibition; at 40 µM; stronger effect = lower value. Put shortly: as §1
Assay [4] concerns the target Nicotinamide N-methyltransferase (Homo sapiens) (UniProt P40261). The settings on record: purified enzyme, MTase-Glo SAH luminescence; measured here: NNMT inhibition; at 40 µM; stronger effect = lower value. Put shortly: as §1
For assay [5], the target named is Phenylethanolamine N-methyltransferase (Homo sapiens) (UniProt P11086). The settings on record: purified enzyme, MTase-Glo SAH luminescence; measured here: PNMT inhibition; at 40 µM; stronger effect = lower value. In short, it runs like this: as §1

SMILES strings stand for the structures. The list shows a part of the results. The main result of the screen is listed elsewhere. These columns were measured beside it and carry no call.
% is scaled to controls: 0 for no effect and ±100 for the full control effect.

Regarding `Cc1ccc(C2Nc3c(ccc(C(=O)O)c3C)C3C=CCC32)cc1` (stereo not given), the activity change, negative = inhibition was -31.4% in assay [1]; 0% in assay [2]; 3.85% in assay [3]; 2.4% in assay [4]; -14.9% in assay [5].

With `O=C(N1CCCCCC1)C1(CCO)CCN(c2ncccn2)C1` (stereo not given), the activity change, negative = inhibition in assay [1] is -3.65%; in assay [2] it was -6.08%; in assay [3] it was -3.74%; in assay [4], -7.1%; in assay [5], 3.31%.

As for `O=C(Cn1nc2nc(Nc3ccc(F)cc3)ccn2c1=O)Nc1cc(F)ccc1F`, the activity change, negative = inhibition in assay [1] is -4.29%; in assay [2], -4.83%; in assay [3] it was -0.506%; in assay [4], -19.1%; in assay [5] it was -7.66%.

With `COc1ccccc1CNC(=O)C1c2c(n(C)c3ccccc23)SCC(=O)N1c1ccc(Cl)cc1` (stereo not given), the activity change, negative = inhibition in assay [1] turned out to be 11.7%; in assay [2], 0%; in assay [3] it was 3.35%; in assay [4] it was 0.451%; in assay [5], 7.62%.

With `COc1ccc(OC)c2c1cc1n2CC(C)(C(=O)NC2CCCC2)N(Cc2ccco2)C1=O` (stereo not given), the activity change, negative = inhibition in assay [1] is -2.35%; in assay [2], 0%; in assay [3], 1.01%; in assay [4], 3.3%; in assay [5], -0.72%.

As for `CC1CC(C)CN(S(=O)(=O)c2ccc3c(c2)oc(=O)n3CC(=O)NCCc2ccccc2)C1` (stereo not given), the activity change, negative = inhibition in assay [1] was -8.01%; in assay [2] it was -0.204%; in assay [3] it was -7.41%; in assay [4] it was -2.13%; in assay [5] it was -26.8%.

For the compound `Cc1cc(=O)oc2cc(CN(C)CC(C)N3CCOCC3)ccc12` (stereo not given), the activity change, negative = inhibition is -6.76% in assay [1]; -6.76% in assay [2]; -10.1% in assay [3]; -12.7% in assay [4]; -9.11% in assay [5].

In the case of `CCC(C)C1NC(=O)C(Cc2ccccc2)NC(=O)C(CCCCCC(=O)C(O)CO)NC(=O)C2CCCCN2C1=O` (stereo not given), the activity change, negative = inhibition was 2.57% in assay [1]; -2.73% in assay [2]; 4.56% in assay [3]; -12% in assay [4]; 2.5% in assay [5].

Consider `COc1ccc(N2C(=O)c3cc4occc4n3CC2(C)C(=O)NC2CCCC(C)C2C)cc1Cl` (stereo not given), for which the activity change, negative = inhibition in assay [1] is -1.63%; in assay [2], 0%; in assay [3], 5.75%; in assay [4] it was 3.24%; in assay [5] it was -0.605%.

Take `COCCOCc1nc(C2CCCN2C(=O)c2ccccn2)no1` (stereo not given): the activity change, negative = inhibition in assay [1] is -1.27%; in assay [2], 1.86%; in assay [3], 1.61%; in assay [4], -0.812%; in assay [5], -2.71%.

Take `COc1ccc(NC(=O)Cn2nc3n(Cc4ccc(C)cc4)c(=O)c4ccccc4n3c2=O)cc1`: the activity change, negative = inhibition in assay [1] amounted to 4.79%; in assay [2], 6.5%; in assay [3], 12%; in assay [4], 3.76%; in assay [5] it was 3.12%.

`CC1(C(=O)NC2CCCCC2)Cn2nc(-c3cccs3)cc2C(=O)N1Cc1ccc(F)cc1` (stereo not given): the activity change, negative = inhibition in assay [1] stood at 2.36%; in assay [2], 0%; in assay [3], 8.8%; in assay [4], 1.73%; in assay [5] it was 1.81%.

Turning to `CN1CCN(c2cc(N3CCCC(CN4CCCCC4)C3)nc(N)n2)CC1` (stereo not given), the activity change, negative = inhibition was -4.68% in assay [1]; -4.7% in assay [2]; -14.1% in assay [3]; 1.01% in assay [4]; -5.06% in assay [5].

With `CC1CC2OC3(OC2C(C)(C)O)C1C1(C)CCC24CC25CCC(O[C@@H]2OC[C@@H](O)[C@H](O)[C@H]2O)C(C)(C)C5CC=C4C1(C)C3O` (stereo not given in full), the activity change, negative = inhibition in assay [1] is 5.1%; in assay [2], 14.9%; in assay [3], 11.1%; in assay [4], 1.93%; in assay [5], 8.24%.

On to `C[C@H]1CO[C@@H]2Cn3cc(C(=O)NCc4ccc(F)cc4F)c(=O)c(O)c3C(=O)N12`, for which the activity change, negative = inhibition in assay [1] is 4.38%; in assay [2] it was 4.14%; in assay [3], 9.89%; in assay [4] it was -12.1%; in assay [5] it was 3.78%.

As for `C=C1CC23CC1CCC2C12OC(=O)C(C)(C(O)CC1O)C2C3C(=O)O` (stereo not given), the activity change, negative = inhibition is -5.97% in assay [1]; -5.95% in assay [2]; 0.756% in assay [3]; -16.6% in assay [4]; -15.2% in assay [5].

Regarding `CCC(C)NC(=O)c1ccc2c(=O)n(C3CC3)c3nn(CC(=O)Nc4cccc(F)c4)c(=O)n3c2c1` (stereo not given), the activity change, negative = inhibition in assay [1] amounted to 2.4%; in assay [2], 0%; in assay [3], 4.8%; in assay [4], 1.68%; in assay [5], 5.61%.

For the compound `COCCn1c(=O)n([C@H]2CCCN(C(=O)NCCc3ccccc3)C2)c2ncccc21`, the activity change, negative = inhibition in assay [1] is -6.38%; in assay [2], -3.44%; in assay [3], -7.74%; in assay [4], -10.2%; in assay [5], 6.06%.

With `COc1ccc(CN2C(=O)c3cc(-c4ccccc4)nn3CC2(C)C(=O)NCc2ccccc2)c(OC)c1` (stereo not given), the activity change, negative = inhibition in assay [1] was -1.77%; in assay [2] it was 3.59%; in assay [3], -1.7%; in assay [4], -3.3%; in assay [5], -4.85%.

As for `COc1cccc(NC(=O)CSc2nnc3n(CC(C)C)c(=O)c4ccc(Cl)cc4n23)c1`, the activity change, negative = inhibition was -6.82% in assay [1]; 0.635% in assay [2]; 3.27% in assay [3]; -15.1% in assay [4]; 0.434% in assay [5].

In the case of `CC1(C(=O)NC2CCCCC2)Cn2c(ccc2-c2ccccc2)C(=O)N1Cc1ccco1` (stereo not given), the activity change, negative = inhibition in assay [1] was -0.42%; in assay [2] it was 1.04%; in assay [3] it was 2.47%; in assay [4], -13%; in assay [5] it was -0.999%.

As for `O=c1[nH]c2ccc(S(=O)(=O)N3CCN(Cc4ccc5c(c4)OCO5)CC3)cc2[nH]1`, the activity change, negative = inhibition in assay [1] was 7.36%; in assay [2] it was 0%; in assay [3], 10%; in assay [4], 2.35%; in assay [5] it was -7.79%.

On to `COc1cccc(NC(=O)Cn2c(=O)oc3cc(S(=O)(=O)N4CC(C)CC(C)C4)ccc32)c1` (stereo not given), for which the activity change, negative = inhibition was 7.18% in assay [1]; 0.566% in assay [2]; 4.76% in assay [3]; 3.55% in assay [4]; -45.1% in assay [5].

For the compound `CC(C)Oc1ccc(CN2C(=O)c3ccc(-c4ccco4)n3CC2(C)C(=O)NC2CCCCC2)cc1` (stereo not given), the activity change, negative = inhibition in assay [1] is -4.45%; in assay [2] it was 1.71%; in assay [3] it was 5.01%; in assay [4], -6.34%; in assay [5], -0.933%.

With `CC(=O)[C@@]1(O)CC[C@H]2[C@@H]3CCC4=CC(=O)CC[C@]4(C)[C@H]3CC[C@@]21C`, the activity change, negative = inhibition in assay [1] was 13.9%; in assay [2] it was 16.5%; in assay [3], 14.4%; in assay [4], -4.7%; in assay [5], 1.15%.

Take `O=C(c1c(F)ccc(NS(=O)(=O)N2CC[C@@H](F)C2)c1F)c1c[nH]c2ncc(-c3cnc(C4CC4)nc3)cc12`: the activity change, negative = inhibition in assay [1] is -16.2%; in assay [2] it was 1.86%; in assay [3], -13.5%; in assay [4], -26.5%; in assay [5], -18.7%.

`C=C1CC/C=C(/CO)C(=O)C[C@@H]2[C@@H]1CC2(C)C`: the activity change, negative = inhibition in assay [1] was 5.03%; in assay [2], 5.79%; in assay [3] it was 10%; in assay [4], -9.13%; in assay [5], 6.4%.

`COCCCN1C(=O)c2cc3oc(C)cc3n2CC1(C)C(=O)NC1CCCCCCC1` (stereo not given): the activity change, negative = inhibition in assay [1] is -8.62%; in assay [2], 1.03%; in assay [3], -0.782%; in assay [4] it was -7.46%; in assay [5] it was -2.52%.

For the compound `CN1CCC(NC(=O)CC2(Cc3ccccc3)C(=O)N(C)c3ccccc32)CC1` (stereo not given), the activity change, negative = inhibition in assay [1] is -3.29%; in assay [2], -7.37%; in assay [3] it was -2.38%; in assay [4], -9.7%; in assay [5], -4.77%.

As for `CC(C)Cn1c(=O)c2ccc(Cl)cc2n2c(SCC(=O)Nc3ccccc3F)nnc12`, the activity change, negative = inhibition in assay [1] is -9.72%; in assay [2] it was 5.08%; in assay [3], 8.3%; in assay [4], -14.1%; in assay [5] it was -3.93%.

For the compound `CCCNC(=O)CNC(=O)C1(C)Cn2c(cc3ccccc32)C(=O)N1C` (stereo not given), the activity change, negative = inhibition in assay [1] came out at 0.708%; in assay [2], 0.771%; in assay [3], 5.88%; in assay [4], 6.72%; in assay [5] it was 5.66%.

In the case of `CC(C)OCCCn1c(=O)c2ccccc2n2c(SCC(=O)Nc3ccc4c(c3)OCO4)nnc12`, the activity change, negative = inhibition in assay [1] was -7.92%; in assay [2], -2.38%; in assay [3], -0.829%; in assay [4], -8.92%; in assay [5] it was -5.08%.

With `CCN(CC)C(=O)c1ccc(O)c(OC)c1`, the activity change, negative = inhibition in assay [1] was -4.66%; in assay [2] it was 7.46%; in assay [3], 0.004%; in assay [4], -6.97%; in assay [5] it was 7.77%.

Consider `CCOC(=O)COc1cc2oc(=O)cc(-c3ccccc3)c2cc1Cl`, for which the activity change, negative = inhibition is -2.71% in assay [1]; 0% in assay [2]; 5.12% in assay [3]; 2.36% in assay [4]; -1.83% in assay [5].

On to `CCCCN1C(=O)c2cc(C(=O)NCc3ccc4c(c3)OCO4)nn2CC1(C)C(=O)NC1CCCC1` (stereo not given), for which the activity change, negative = inhibition in assay [1] was 3.26%; in assay [2], 0.152%; in assay [3], 2.86%; in assay [4], 0.488%; in assay [5], 2.48%.

Turning to `CCCC1c2ccc(C)n2CCN1C(=O)Nc1cccc(OC)c1` (stereo not given), the activity change, negative = inhibition in assay [1] was 0.74%; in assay [2], 3.43%; in assay [3], -0.751%; in assay [4] it was 3.08%; in assay [5], 3.35%.

In the case of `CCOC(=O)c1cc2n(n1)CC(C)(C(=O)NC1CCCCCC1)N(c1ccc(C)cc1)C2=O` (stereo not given), the activity change, negative = inhibition in assay [1] was found to be 4.32%; in assay [2] it was 0.909%; in assay [3], 1.92%; in assay [4], 1.58%; in assay [5], 4.8%.

For the compound `CCCn1c(=O)c2ccc(C(=O)NC(C)CC)cc2n2c(SCC(=O)Nc3ccc(C)c(C)c3)nnc12` (stereo not given), the activity change, negative = inhibition in assay [1] was -1.22%; in assay [2] it was 2.5%; in assay [3], 0.281%; in assay [4], 0.878%; in assay [5], -0.575%.
